The list shows a part of the results.
Tested on: PF3D7_0420300 AP2 domain 1 (GST-tagged)
Assay: gcPBM binding intensity (ln(normalized median fluorescence intensity)); higher = stronger DNA binding
Method in brief: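 Binding intensity values are the highest Masliner-normalised natural-log median intensity among replicate spots of either probe orientation. The binding step lasted 1 h in 1× PBS with 1% milk, 0.2 mg/ml BSA, 0.5% salmon testes DNA and 0.03% Triton X-100, using GST-tagged P. falciparum DNA-binding domains expressed in E. coli on an Agilent 4 × 180k array of primer-extended double-stranded 36-bp intergenic genomic probes plus negative controls. Alexa488 anti-GST antibody and a 488 nm scan detected bound protein.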

Row | Sequence | gcPBM binding intensity (ln)
1 | ATGTCATAAAAACATATACACACTTGAAATATAAAA [CACACA_site2329] | 9.41
2 | CATTCCTATTATTATACACACAAATTAAGAATTCAA [CACACA_site787] | 9.3
3 | AATAGTTGCTAAAGGTGTACAATACATTTATTAGAA [XGTACX_site2773] | 9.29
4 | TATTACTTAAATAAAAGTACATATAACATTTTAGTT [XGTACX_site196] | 9.06
5 | TGTATAGTCTAAAGTTGTACAAAAAAAAAAAAAAAA [XGTACX_site5764] | 8.67
6 | TCTTTGGTATTTACATGTACATATTCTTAAAAACAT [XGTACX_site3124] | 9.33
7 | GAAAATAAAATATTAGTGCATTATTTGATCAATAAT | 9.11
8 | TATATTTATACTTATACACACATTATTGAATTAACC [CACACA_site934] | 9.52
9 | ATTATTTATATTTGGAGTACTTATAATATTTTTATA [XGTACX_site1289] | 9.27
10 | CTTTATATATTTTATTGTACTTAAAAAAAAAAAAAA [XGTACX_site2134] | 8.63
11 | AAAAAATATGCATATACACACATATGTATAAATAAC [CACACA_site7090] | 9.65
12 | AAAATATTTATTCCTAGTACTTACCATTATATATAT [XGTACX_site363] | 9.37
13 | AAAAAAAAATGAAAAGAAAAAAAAAGAAAAAAGGGA [CACACA_negctrl_site287] | 9.66
14 | TATAGGTATTTGTATACACACAAATGTATATATCTA [CACACA_site6713] | 9.31
15 | AGTGTAAGCTAAGTGGTGCGTTGAATAAGGTTTTTT [GTGCAC_site9951] | 9.31
16 | ATAAATAAAACAAATAGTACAATATAAAAAAAAAGG [XGTACX_site87] | 9.81
17 | AAGAGGATACACAATGTGCACTTTTTTTTTTTTTTT [GTGCAC_site9415] | 9.27
18 | TATACAGATATATATACACACATATATATAAATACA [CACACA_site4383] | 9.68
19 | TATATATATAATATATGTACTCATATTAAGAGATAC [XGTACX_site1354] | 9.19
20 | TATATATGTATATTTTGTACGTATTTATTTACATGA [XGTACX_site4584] | 9.3
21 | AATGAGCTTTTTAAAAGTACTAAATATAAATAAATA [XGTACX_site3632] | 9.04
22 | ATAATATAAATATACACACACACATATATATATATA [CACACA_site2905] | 9.91
23 | TAATAAGGAATTTATAGTACATATTCATATGTTTTA [XGTACX_site2331] | 8.92
24 | ATAAAAATTTATATATGTACTTAATTTTTAATTTTT [XGTACX_site7482] | 9.15
25 | TATGTTTTTGAATGAGTGCATTAAAATAAAACATTT | 8.99

From the supplement of paper PMC11417369
